Assay results taken from the supplement of paper PMC3334620.
Whole data set: some 33,000 sequences, median “E-score (-0.5 to 0.5)” near -0.012, cut for the highest 2% near 0.27. This is one part of the list.

biological target: T1, Vhr1 (UniProt P40522); experiment: PBM E-score (8-mer binding enrichment) (E-score (-0.5 to 0.5)); higher = stronger / more preferred TF binding; most listed sequences are background and not binding sites; settings: protein concentration: 200 nM; construct: GST-full length
T1 sequence: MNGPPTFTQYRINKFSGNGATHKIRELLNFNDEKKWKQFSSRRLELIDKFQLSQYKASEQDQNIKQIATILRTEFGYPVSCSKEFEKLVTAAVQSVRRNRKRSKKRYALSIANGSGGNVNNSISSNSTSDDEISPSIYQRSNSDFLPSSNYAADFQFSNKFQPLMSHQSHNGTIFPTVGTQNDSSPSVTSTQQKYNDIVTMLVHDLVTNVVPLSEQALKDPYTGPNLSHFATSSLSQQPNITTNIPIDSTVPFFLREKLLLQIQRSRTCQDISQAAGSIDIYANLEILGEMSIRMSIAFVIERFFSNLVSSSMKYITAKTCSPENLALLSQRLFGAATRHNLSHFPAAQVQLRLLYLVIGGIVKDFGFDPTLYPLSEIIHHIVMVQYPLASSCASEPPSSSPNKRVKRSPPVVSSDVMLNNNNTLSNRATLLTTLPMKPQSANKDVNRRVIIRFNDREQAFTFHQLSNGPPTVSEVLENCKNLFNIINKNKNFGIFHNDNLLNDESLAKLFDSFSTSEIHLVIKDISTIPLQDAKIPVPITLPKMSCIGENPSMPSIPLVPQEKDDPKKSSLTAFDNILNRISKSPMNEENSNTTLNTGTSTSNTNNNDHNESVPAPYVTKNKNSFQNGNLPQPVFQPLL
Procedure, shortened: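 E-scores (a modified Wilcoxon-Mann-Whitney statistic) were assigned by the Universal PBM Analysis Suite to every ungapped eight-base word pooled with its reverse complement. The input came from universal all-10-mer Agilent arrays made double-stranded by primer extension and probed with GST-tagged yeast transcription factors at about 100-200 nM. Fluorescent anti-GST detected bound protein, and masliner normalised the scans.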

Compared with GATTGATA, CATGCTGC is lower in “PBM E-score” value: 0.167 for the first, 0.132 for the second.

First: CTGATAGA
Second: CTCATGCA
The “PBM E-score” value of the first is lower: 0.0661 for the first, 0.0917 for the second.

Compared with TTATTAAA, GGCATGCC is higher in “PBM E-score” value: 0.0393 for the first, 0.211 for the second.

First: CTTGTGAA
Second: AACGTCAA
The “PBM E-score” value of the first is higher: -0.0681 for the first, -0.269 for the second.

Compared with AATATGGT, ATAGGACC is lower in “PBM E-score” value: 0.27 for the first, -0.21 for the second.

Compared with AAACGCCA, CGTAGTCC is lower in “PBM E-score” value: 0.183 for the first, -0.0429 for the second.

Going from AAGGTGCA to CCCTTATA, the “PBM E-score” value rises from -0.254 to -0.127.

Compared with AAGGAAAG, CTCAAGTC is higher in “PBM E-score” value: -0.175 for the first, -0.0821 for the second.

Compared with AACGGGGC, GGCTCACC is higher in “PBM E-score” value: -0.0723 for the first, 0.196 for the second.

Going from TGCAACAA to GTATTAGA, the “PBM E-score” value rises from -0.104 to -0.0133.

Compared with GCGGAGCC, TCAAACCA is higher in “PBM E-score” value: 0.112 for the first, 0.155 for the second.

Going from ACCAGCAG to CACTCTAC, the “PBM E-score” value rises from -0.0378 to -0.0345.

Going from CGGTGGTC to AGCCAGGA, the “PBM E-score” value falls from 0.072 to -0.00297.

Compared with ACATTCAT, ATCGGGCA is lower in “PBM E-score” value: 0.0173 for the first, -0.042 for the second.

Going from CTCTATCC to CTTGCTCC, the “PBM E-score” value rises from -0.216 to -0.0557.

Going from GTCGACTA to GGTTCTAC, the “PBM E-score” value falls from 0.23 to -0.184.

Compared with AATTCAAG, ACTTGGGA is higher in “PBM E-score” value: -0.17 for the first, -0.155 for the second.

Compared with GCTCAAAA, ATAAGATG is higher in “PBM E-score” value: -0.0436 for the first, 0.104 for the second.

Compared with ATACCACC, CATGCTAG is lower in “PBM E-score” value: 0.186 for the first, 0.0281 for the second.

Compared with CATATGTC, ACCTACGA is higher in “PBM E-score” value: 0.0497 for the first, 0.0559 for the second.

Going from CCAGTCGC to AGTGCCGC, the “PBM E-score” value falls from 0.13 to -0.0826.

Compared with CAGGCCTA, CCTCAGAA is lower in “PBM E-score” value: -0.016 for the first, -0.221 for the second.

Going from CACTGATA to AGAGTTCG, the “PBM E-score” value rises from 0.0775 to 0.171.

Going from GTGACGTA to AGTTCCAG, the “PBM E-score” value falls from -0.03 to -0.102.

Going from CGTAAGGA to ATCGATGA, the “PBM E-score” value rises from -0.205 to 0.159.

CCTCTCCC and CGGTAACG are the same in “PBM E-score” value: -0.108 for the first, -0.108 for the second.

Compared with GGCGAGCC, CGGCCTAA is lower in “PBM E-score” value: 0.0685 for the first, 0.0238 for the second.

Going from CTAGCGAA to AGATGAAA, the “PBM E-score” value rises from -0.174 to 0.015.

First: CATCGATC
Second: CAGACGCA
The “PBM E-score” value of the first is lower: 0.016 for the first, 0.211 for the second.

Compared with GATGGGAA, CGCCCCGA is higher in “PBM E-score” value: -0.0859 for the first, 0.168 for the second.

Going from AGGTTAAG to CCCCAACA, the “PBM E-score” value rises from -0.202 to -0.164.

Going from CCTGAAGG to GCACAAAC, the “PBM E-score” value rises from -0.215 to 0.00169.

Compared with CAAGTCAA, ACAGTCCA is higher in “PBM E-score” value: -0.0643 for the first, 0.0672 for the second.

First: TAATGCTA
Second: GGTTCCTA
The “PBM E-score” value of the first is higher: 0.0527 for the first, 0.0497 for the second.

Compared with ACAAGAGG, GATGGGCA is higher in “PBM E-score” value: -0.0584 for the first, 0.134 for the second.

Going from ATCTCCAG to CGCTTCCC, the “PBM E-score” value rises from -0.00087 to 0.11.

First: TAGTAGCA
Second: AAAATCTG
The “PBM E-score” value of the first is lower: -0.0122 for the first, 0.0328 for the second.

Compared with AAAGCACC, ATCTGTGA is higher in “PBM E-score” value: -0.217 for the first, -0.00754 for the second.

First: CGTATGAG
Second: CAACCATG
The “PBM E-score” value of the first is lower: 0.0897 for the first, 0.217 for the second.

Going from AGCTTGAG to CCGCGGCA, the “PBM E-score” value rises from -0.209 to 0.127.

First: GTGGCTCA
Second: CCGGGGCA
The “PBM E-score” value of the first is higher: 0.277 for the first, -0.0498 for the second.

First: CCATTCAC
Second: AAAACCCT
The “PBM E-score” value of the first is higher: 0.0874 for the first, -0.0964 for the second.

Compared with AGCCCCAT, CCATGGGA is higher in “PBM E-score” value: 0.0303 for the first, 0.0741 for the second.

Compared with CATGAGAA, CCTGGGTA is higher in “PBM E-score” value: 0.0543 for the first, 0.139 for the second.

Compared with CTTCCGTC, ACCGTATG is higher in “PBM E-score” value: -0.104 for the first, 0.153 for the second.

Going from ACCAAGAT to AGTGAAGG, the “PBM E-score” value rises from -0.0296 to 0.0621.

Compared with CCACCAAA, CGTTTACA is lower in “PBM E-score” value: 0.0455 for the first, -0.19 for the second.
